Assay results: a collection of fitness landscapes (doi:10.1016/j.celrep.2020.107928)
The full ranking holds about 81,000 sequences; the median of “one-hybrid fitness for binding NBS DNA” is about -0.1, and the highest 2% start at about 0.36. This is one part of the list.

B1: Caulobacter ParB omega fusion; a variant is named by its letters at X, in order, B8GW30 (parent)
chain: MESVVVGEPGMSEGRRGLGRGLSALLGEVDAAPAQAPGEQLGGSREAPIEILQRNPDQPRRTFREEDLEDLSNSIREKGVLQPILVRPSPDTAGEYQIVAGERAWRAAQRAGLKTVPIMVRELDDLAVLEIGIIENVQRADLNVLEEALSYKVLMEKFERTQENIAQTIGKSXSHVANXMRLLXLPDEVQSYLVSGELTAXHARAIAAAADPVALAKQIIEGGLSVRETEALARKAPNLSAGKSKGGRPPRVKDTDTQALESDLSSVLGLDVSIDHRGSTGTLTITYATLEQLDDLCNRLTRGI

Variants of: B1
Assay: one-hybrid fitness for binding NBS DNA (the Noc-binding site; scaled: cognate 1, non-cognate 0); higher = stronger binding
Settings: with NBS DNA site
Method in brief: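 Pre- and post-selection plasmids were Illumina-sequenced, three replicate libraries were pooled, and any variant with under 10 reads was removed. The libraries were Caulobacter ParB with four specificity codons randomised, selected in E. coli USO through a HIS3 reporter whose site is 19 bp from the promoter. Cells grew 48 hours at 37°C on M9 without histidine, with 0.1 mM IPTG and 5 mM 3-AT. Fitness is the log change in variant-to-wild-type read ratio, rescaled against cognate and non-cognate.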

one-hybrid fitness for binding NBS DNA, 0.555:
KTKR

one-hybrid fitness for binding NBS DNA, ≤ 0.2:
ISNL
IGTT
NNPN
SGEF
KFKC
STAY
ERTG
QPLW
CQNK
WPLI
QLVV
RLWE
SAPY
HCDN
PQPG
RFKC
NTTM
RLCG
RISD
IARS
CLDT
GFDG
CPFR
WNSG
GIGS
YYQR
SASK
TAGV
LDEQ
DRES
NHSY
YDVW
PVQC
FQDC
ISES
YKIS
FAQL
TEEA
PHAW
THPQ
NASC
SYQS
PRKL
ASKS
SEVG
SEHT
CSCG
ANRL
LTAD
YREE
LQMV
MHVY
FTSQ
DTQF
PEKM
ALSA
RTVH
IQMT
QQYM
IADR
GVYF
TDNS
NPLY
SNQS
IFSA
SYNR
CAYG
PFQT
QEDS
NIPY
LWAY
MIGI
MSIS
MCNS
NFQG
SGTV
QMIP
PHRS
PKTH
LEKT
FNAV
PCLS
SRAH
NDRT
KNTR
AAIM
DVTT
QWAF
LYRE
YSFC
DTEG
DITL

one-hybrid fitness for binding NBS DNA, 0.468:
QTKI

one-hybrid fitness for binding NBS DNA, 0.486:
QCTT

one-hybrid fitness for binding NBS DNA, 0.322:
QLGS

one-hybrid fitness for binding NBS DNA, 0.302:
QRAF

one-hybrid fitness for binding NBS DNA, 0.237:
RQKV
